Test results published in the supplement of paper PMC10126150.
Values marked as one replicate rest on one cluster of the flow cell; about a third of the high ones do not repeat.

Tested on: ATP
Assay: switch fluorescence ratio, 500 uM ATP over buffer (Cy3 cluster intensity, sum of 5 cycles each) (fold (ratio)); higher = stronger signal-on switching upon ATP binding; sequences stand for … in TCGTCGGCAGCGTCAGATGTGTATAAGAGACAGTTTTTTTTTTTTTTTTTTTTTTTTT…TC
Conditions: aptamer strand: ATP DNA aptamer (quencher-CACCTGGGGGAGTATTGCGGAGGAAGG + anchor), 100 nM annealed; ATP concentration: 500 uM; one replicate
How it was run: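 Cy3-labelled switching-strand clusters on a modified Illumina MiSeq flow-cell were annealed to 100 nM quencher-labelled ATP aptamer and imaged first in selection buffer, then after 15 min with 500 uM ATP at 22 °C. NaOH stripping and re-annealing separated each of five buffer/ATP cycles, and clusters outside 100-1000 RFU were excluded. The fluorescence ratio sums target-cycle Cy3 intensity over buffer-cycle Cy3 intensity per cluster and averages it per switch-domain sequence.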
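Note: ATP exposure 15 min at 22 °C before imaging.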

Sequence	switch fluorescence ratio
ACGTACTCAA	1.31
GTTACTGAAG	0.998
GAATGTTTTC	1.05
ATTCGTGTCG	0.886
AAACGTCGAC	0.957
GCGGACGGTG	1.01
ACCCCGTCGT	1.05
ATACTGTACT	1.55
AGACTTAGAT	1.03
TTTAACCTCT	0.96
CTAGCTATCA	1.03
TGCGTGCGGG	1.04
GTCGTAGTCA	0.984
CCGTGTCATA	1.09
TTGTGTGG	1.02
CTAGGAAAGC	1.01
CTGAGTCCTA	1.08
CTATCAATTA	1.02
TTCACTAGGG	0.968
GCCAAGACGA	1.31
AGGGCAGCTA	1.02
GCAGTAAAC	1.45
ATCTCAAGGG	1.03
ATGGTTTTGA	1.04
GTTGGATATC	1.02
GGGGCCAGTA	1.07

Sequence	switch fluorescence ratio
CATACTAATA	1.01
AAGATTGGA	0.977
GCATCGGGCG	1.03
CATTGTGAGC	0.993
ATGAGCGGGT	0.98
GCGGGCGAGG	1.02
CGCAGTACTG	3.11
CATTGGATGG	1.01
GGACGTTCCA	0.979
TGTAATACCG	1.03
TTCCCGTCTC	1.07
AACTGGTTGT	1.06
TCTAGTAGAT	0.974
CGCCGTAGTC	0.997
TCGTGTTTCC	1.05
ATGTTTGC	1.01
GCGTAAGTGT	1.03
TTATGGACCA	0.984
GCGGTGGGTC	1.03
GGTGCTGTTT	0.969
CCCGTGCAAG	1.28
CTTACGTCGT	1.02
CGACAATCTA	1.16
TTATTAAAGT	1
ATAGACGGC	1.09
TTACGCAACG	1.39

Sequence	switch fluorescence ratio
TTGTCTAACG	1.67
GGTCGAACTG	1.01
TTACCTAATA	1.04
TAATCGTGGC	0.986
CGGTACAGTC	1.06
ACTCGTGCAA	4.66
TGACCAATTG	0.975
CCTTGTGCCG	1.07
TGCTTAGTCG	1.06
ACGGGTAGGT	1.01
TACGTCTTTG	0.997
GTTCACTTCG	1.02
AAGGGCTAAA	0.953
GTTACATTTG	1.01
TTCGATGTGT	1.03
GGGGACTAG	1.05
TACTAGGGAG	1.02
ATTAATTCAC	1.03
AAGAGCGACA	0.981
GACACTAT	1.35
AACAGTTCAA	1.02
ACCAGCGTAG	1
ACTATTGTTG	1.01
GAGGGAGTGA	1.06
ATCTGCCAC	1.18
GCTAGAAATA	0.98

Sequence	switch fluorescence ratio
CAGTGCCGCC	1.06
TGTTGAGGCC	0.914
GGCCCTTCTC	1.19
TTTTGCAGTC	1.28
TGCAACGTCA	1.07
CGAAGTGTGC	1.47
CATCTAAAGT	1.02
AAGGGTGGAA	1.03
GGTGCGTTAG	0.977
GCCTAACGCA	1.12
CTTTCCCACA	1.07
GAAGTTTGGC	0.999
TCGCTGATTA	1.01
GAGGCACAGA	0.991
CAGGTAGTTA	0.97
CACAGGTAGG	1.07
CGTCTCATAG	1.03
CGTTTTGTTC	1.01
AGATGTAACG	1.03
CCGTCTGTGT	1.08
TCACTGAAGG	0.994
TCAGGAAGTG	0.961
CAGAGGTGCT	1.06
AATAAAGGAA	1.04
GATGAATAAT	0.994
TGGCCCACA	1.02

Sequence	switch fluorescence ratio
ATACTCAAAT	0.993
TCGGGCGTTG	0.989
GACTAGCATT	1.07
ATCATTGTCA	1.07
TGCTTTTAAA	0.964
TAGTTAGTAA	0.986
GGTCCTTGGA	0.996
CTGAAGATCG	1.03
TGTGTTAGCG	0.97
AGGTGAACGG	0.998
CAATGAAGGG	0.982
AATCTTCACA	1.05
TGGTTTCATG	0.986
CGTTTATAGA	1.05
GGTAGGGCCC	1
GAAGCTCCGA	1.07
ACATGCAT	1.03
ATTTCGCACG	1.03
ATCGGGAGG	1.38
TTCACGCATT	1.33
GGGGCCGGCT	1.08
AAGCTGAAAT	1.3
GATGTAGGCT	0.88
CATGTCTGGT	0.973
TACATTGATC	1.04
AAGGCTTCTG	1.04

Sequence	switch fluorescence ratio
GTCTTAATCG	1.02
ATTTCTAATA	0.943
TAATTGCAT	1.04
AACCCTATGT	1.04
ATTGACGTAA	1.15
GTAGTATCAT	0.995
TGGTAATAGA	1.01
CTCGTGGAGT	1.01
GAAGTAGCCA	1.02
GGCGCTTGAG	1.02
AAAAGCTATA	1.05
GCGGATTCGA	0.986
TGCTGTTAGT	0.969
TTCCCTGAAT	1.13
AAGATAGTTA	0.953
TCATTTTTTG	0.997
TAGGCTCT	0.989
CCTTTTGTTC	1.35
GGAAGATGGA	0.917
GGACGGGATA	1.07
CGAATAGAAC	1.02
AAGCCAAAAA	1.02
CTCGCTATGG	1.99
ACTTATTCGC	1.06
ACCAAGAGTC	1.05
AAAGCCTTAG	1.03

Sequence	switch fluorescence ratio
TGTTCAGATT	1.03
ATTTGGTCGA	1.06
TGCGTATAAG	0.98
GCTGGCTTTA	0.961
CTTTAAGCTA	1.12
GCGGCGGACA	1.03
GGGCGGTGCG	1.04
ATGCGAATGT	1.01
TATAGGACAG	1.01
TCTTGGGTTC	0.992
ACTCTCTAT	1.02
TATAATAAGA	0.981
CGGTCCGACG	1.03
TATGATAAAG	1.03
GCACGAGGGC	0.967
TATTTGGAG	0.987
TTAGAGTTCA	0.975
TAATCAACTG	1.11
ATACTGCCGG	0.989
TTAAATAGAA	1.01
TATTACTCAA	1.02
TAATTATATA	0.975
TGGTGCAGTG	1.01
TAGGCATGAA	1.02
TCATACGTGG	1.03
AAATTAAGGC	1.02

Sequence	switch fluorescence ratio
CGAGTAAGCT	1.03
ATCAGCGCGT	0.985
ATCTTAACCG	1.03
TATTCACTGG	1.02
CAATGTTTTG	1.04
TGCAAGGTAT	1
GAATCGGGCA	0.983
AAGCTGGACA	0.962
GACCAGCCTT	1.04
TGTCTTGGGG	1.01
ATGGATTC	0.976
TAGCTTTAGG	1.07
CGGGGCTCTG	1.01
CGTTGCAATT	1.54
CATCGGGCCA	1.02
TCGGGACGAT	1.02
GTTTGCGATC	1.11
AAGATTAATG	0.983
TACAGGCATC	1.06
